# From publication PMC6919601, “Identification of Plasmodium dipeptidyl aminopeptidase allosteric inhibitors by high throughput screening” (PLoS ONE, 2019)
# Out of some 110,000 compounds screened, about 230 (0.21%) showed an effect of 50% or more. The list shows a part of the results.
# Target: DPAP1 (Plasmodium falciparum, UniProt Q8IIJ9)
# Assay: primary screen, percent inhibition; read by cleavage of a fluorogenic dipeptide substrate; higher = more effect of the substance
# Parameters: species or system P. falciparum D10 trophozoite lysates; single well
# 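Also: 30 min substrate incubation versus DMSO and 10 µM JCP410 controls.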
# Sequence of DPAP1 (Q8IIJ9 whole entry, looked up): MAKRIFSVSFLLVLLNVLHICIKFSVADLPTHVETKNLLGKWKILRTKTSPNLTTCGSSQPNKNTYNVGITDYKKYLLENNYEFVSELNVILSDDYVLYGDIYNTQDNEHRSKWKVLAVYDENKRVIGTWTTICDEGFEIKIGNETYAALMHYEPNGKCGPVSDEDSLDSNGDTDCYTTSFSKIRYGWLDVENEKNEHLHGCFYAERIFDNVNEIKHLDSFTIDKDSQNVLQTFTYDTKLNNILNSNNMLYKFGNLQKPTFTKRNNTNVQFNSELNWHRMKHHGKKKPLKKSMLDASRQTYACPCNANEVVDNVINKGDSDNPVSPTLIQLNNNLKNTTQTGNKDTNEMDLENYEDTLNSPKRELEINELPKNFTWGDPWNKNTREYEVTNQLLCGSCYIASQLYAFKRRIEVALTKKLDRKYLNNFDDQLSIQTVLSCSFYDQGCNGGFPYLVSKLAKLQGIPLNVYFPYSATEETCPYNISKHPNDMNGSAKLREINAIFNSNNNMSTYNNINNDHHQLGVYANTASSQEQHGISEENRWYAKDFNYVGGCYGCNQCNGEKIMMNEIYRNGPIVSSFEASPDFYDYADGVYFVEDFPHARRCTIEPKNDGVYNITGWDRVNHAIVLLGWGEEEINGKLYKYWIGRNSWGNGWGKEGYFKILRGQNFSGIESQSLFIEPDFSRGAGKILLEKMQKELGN
row,SMILES,% Inhibition @ 10 uM [%]
1,O=C(CSc1ncnc2[nH]cnc12)c1ccc(Br)cc1,6.79
2,O=C(NCc1ccccc1)/C(=C/c1ccccc1)NC(=O)c1cccc(Br)c1,-6.7
3,COCCCNC(=O)C1CCN(c2nnc(C)c3c(C)n(-c4ccc(Cl)cc4)nc23)CC1,14.3
4,Cc1ccc(NC(=O)COc2ccccc2CO)cc1,-0.999
5,Cc1cc(-c2ccc(C)c(S(=O)(=O)N(C)Cc3cnn(-c4ccccc4)c3)c2)on1,0.879
6,CCCSCCCn1cnc2c3cc(Cl)ccc3nc-2c1O,-3.52
7,COc1ccc(CNC(=O)C2=CC(c3ccc(C)cc3)=NS(=O)(=O)N2C)cc1,2.32
8,COc1ccccc1Oc1coc2cc(OCC(N)=O)ccc2c1=O,-5.01
9,Cc1onc(-c2ccccc2)c1C(=O)NC(C)CCc1ccccc1 (stereo not drawn),1.95
10,CC(=O)c1cccc(NC(=O)CN(Cc2ccccc2)S(C)(=O)=O)c1,1.52
11,COc1ccc(NC(=S)c2sc(N3CCOCC3)nc2N2CCOCC2)cc1,3.49
12,COc1ccc2c(c1)c(=O)oc1cc3occ(C(C)(C)C)c3cc12,-0.808
13,O=C1CN(c2nc3ccc(Cl)cc3n3cnnc23)CC(=O)N1CCc1ccccc1,4.33
14,Cc1sc2c(c1C)c(=O)n(CCc1ccccc1)c(=O)n2Cc1ccccc1,10.7
15,COc1ccc2nc3oc(C(=O)NC(C)CCc4ccccc4)cc3cc2c1 (stereo not drawn),-3.35
16,COC(=O)CCCC/C(=N\O)c1[nH]c(O)nc1C,-3.66
17,CCc1ccc(CN(C(=O)c2oc3ccccc3c2C)C2CCS(=O)(=O)C2)cc1 (stereo not drawn),-1.33
18,COc1ccc(S(=O)(=O)N(CC(=O)Nc2ccc(C)c(Cl)c2)c2ccc(F)cc2)cc1OC,-3.77
19,CCN(C1CCCCC1)S(=O)(=O)c1ccc(F)cc1,3.47
20,O=S(=O)(Nc1ccc(S(=O)(=O)Nc2nccs2)cc1)c1ccc(F)cc1,3.91
21,O=C(NCCC1=CCCCC1)c1ccc2snnc2c1,4.8
22,O=C(NCCCN1CCC(Cc2ccccc2)CC1)C1CC(=O)N(C2CCCC2)C1 (stereo not drawn),3.79
23,CC(=O)c1c(C)[nH]c(C(=O)N2CC(C)CC(C)C2)c1C (stereo not drawn),4.51
24,N#CC1=C(N)Oc2ccc3ccccc3c2C1c1ccc(F)cc1 (stereo not drawn),0.983

row,SMILES,% Inhibition @ 10 uM [%]
1,Cc1cc(Br)ccc1OCC(=O)Nc1ccc(S(=O)(=O)N2CCC(C)CC2)cc1,-5.95
2,CC1CCN(c2ncnc3c2sc2nc(N4CCOCC4)c4c(c23)CC(C)(C)OC4)CC1,-3.92
3,COc1ccc(C(C)=O)cc1N1C(=O)C2C(C1=O)C1C=CC2C12CC2 (stereo not drawn),0.475
4,C=CCO/C(O)=C1\C(C)=Nc2nnnn2C1c1ccc(OC)cc1OC (stereo not drawn),-5.19
5,Brc1cccc(CN2CCc3c([nH]c4ccccc34)C2)c1,-0.828
6,N#CCNC(=O)[C@H](CSCc1ccccc1)NC(=O)c1cccc(Oc2ccccc2)c1,-3.49
7,CC1=C(c2ccc(C)c(C)c2)S(=O)(=O)N(Cc2ccc(C(=O)NCc3ccc(F)cc3)cc2)C1=O,6.31
8,CN(C)S(=O)(=O)c1ccc(-c2cs/c(=N\c3ccccc3)n2C(C)(C)C)cc1,-2.19
9,COCCNC(=O)c1ccc2c(c1)sc1nc(-c3ccc(F)cc3)cn12,5.37
10,Cc1cccc(NC(=O)CC23CC4CC(CC(C4)C2)C3)n1,1.32
11,COC(=O)C1=C(C)N=c2s/c(=C/c3ccc(Cl)cc3Cl)c(=O)n2C1c1ccccc1 (stereo not drawn),-2.35
12,COc1cccc(C2NC(=O)NC(C)=C2C(=O)OCC(F)(F)F)c1 (stereo not drawn),10.4
13,CC(C)OCCCNC(=O)c1cc(S(=O)(=O)N2CCCCC2)c[nH]1,-1.97
14,COc1ccc(C=O)cc1Cn1c(=O)n(Cc2ccccc2)c(=O)c2c3c(sc21)CCC3,-0.668
15,O=C(NC1CCCc2ccccc21)C1c2ccccc2Oc2ccccc21 (stereo not drawn),-13
16,CCOC(=O)C1=CN(Cc2ccc(F)cc2)C=C(C(=O)OCC)C1c1cc(OC)c(O)c(OC)c1,-6.93
17,COc1ccc(CNC(=O)c2cc(-c3ccc(O)cc3)on2)cc1,0.0654
18,Cc1cccc(C)c1NC(=O)c1ccccc1C(=O)O,6.97
19,O=C(COc1ccc(Cl)cc1)Nc1nnc(S(=O)(=O)NCc2ccccc2)s1,-3.51
20,CSc1ccc(CN2CCCCC2CO)cc1 (stereo not drawn),0.215
21,Cc1cc2c(cc3c(SCc4ccc(F)cc4Cl)nncn32)o1,-1.97
22,CN(CC1COc2ccccc2O1)S(=O)(=O)c1ccc(-c2ccc(O)nn2)s1 (stereo not drawn),1.95
23,CCc1ccc(-c2cn3c(n2)sc2cc(C(=O)N4CCN(C(=O)c5ccco5)CC4)ccc23)cc1,28.4
24,Cc1nn(CC(=O)NCc2ccccc2Cl)c(=O)c2cc3cc(F)ccc3n12,3.29

row,SMILES,% Inhibition @ 10 uM [%]
1,O=C(NCCC1=CCCCC1)C1CCCN(c2cnccn2)C1 (stereo not drawn),0.635
2,O=C(NCCN1CCOCC1)c1cccc(F)c1,-6.06
3,OCC1CCCN(C2CCC(c3ccccc3)CC2)C1 (stereo not drawn),3.48
4,COc1ccccc1NC(=O)C1=C(C)N=C2CCCC(O)=C2C1c1ccc(Cl)cc1Cl (stereo not drawn),0.658
5,Cc1ccc(O)c(NC(=O)c2nn3c(C(F)(F)F)cc(-c4cccs4)nc3c2Cl)c1,4.52
6,CCn1c2ccccc2c2cc(CN3CCC(Cc4ccccc4)CC3)ccc21,3.16
7,CCc1ccc(NC(=O)CN2C(=O)S/C(=C/c3ccc4c(c3)n(C)c(=O)n4C)C2=O)cc1,-7
8,Cc1nc2ccc(S(=O)(=O)NC(CC(C)C)C(=O)NC3CCC(C)CC3)cc2s1 (stereo not drawn),-1.3
9,COc1ccc(NCc2cccc(F)c2)cc1,2.91
10,CC(C)OCCCNc1nc2c(S(=O)(=O)c3ccc(Cl)cc3)nnn2c2ccsc12,5.85
11,C=C(C)C1CCC(C)OC1CN1CCCCC1 (stereo not drawn),4.88
12,O=C(NC1CCCC1)c1cc2n(n1)C(C(F)(F)F)CC(c1ccc(F)cc1)N2 (stereo not drawn),1.15
13,CCOC(=O)N1CCN(C(=O)c2nc3ccccc3s2)CC1,2.48
14,COc1ccc(N(CC(=O)N2CCN(c3ccccc3)CC2)S(C)(=O)=O)cc1Cl,-10.2
15,COc1ccc(C(=O)O)cc1S(=O)(=O)NCc1ccccn1,-3.5
16,O=C(O)c1ccc(NC(=O)c2ccc3c(c2)C(=O)N(Cc2ccco2)C3=O)cc1,1.39
17,CCCOc1ccc(C(=O)Nc2ccc(Cl)cn2)cc1,-10
18,CC1=CC(C)C2(COC(=O)CN3CCCCC3)COC(c3ccccc3)C1C2C (stereo not drawn),6.21
19,Cc1cc(NS(=O)(=O)c2ccc(CN3C(=O)c4cccnc4C3=O)cc2)c2ccccc2n1,-3.54
20,CC(/C=C1\SC(=O)N(CC(=O)Nc2ccccc2O)C1=O)=C\c1ccccc1,21.9
21,Cc1cc(C(=O)NC2CCC(C)CC2)n[nH]1 (stereo not drawn),0.181
22,Cc1cc(-c2ccc(Cl)cc2)nc2cc(C(=O)O)nn12,0.316
23,Cc1oc(-c2cccs2)nc1CSc1nc2ncccc2o1,-3.15
24,CC(Oc1ccc(Cl)cc1Cl)C(=O)Nc1ccc(S(=O)(=O)N2CCOCC2)cc1 (stereo not drawn),-0.511

row,SMILES,% Inhibition @ 10 uM [%]
1,CC(=O)Nc1ccc(NC(=O)Cc2ccc(F)cc2)cc1,-0.318
2,CC1CCN(S(=O)(=O)c2cccc(C(=O)NCc3ccco3)c2)CC1,-10.4
3,CCOC(=O)c1[nH]c2ccccc2c1NC(=O)c1cccc2ccccc12,3.49
4,c1ccc2c(c1)NC(CN1CCOCC1)CO2 (stereo not drawn),2.99
5,CCC/N=C/c1c(C)nn(-c2ccc(C)c(C)c2)c1O,0.0719
6,COc1ccc(C(=O)Nc2ccc(S(=O)(=O)N(C)Cc3ccccc3)cc2)cc1,-2.66
7,CC(NC(=O)C1CCCN1S(=O)(=O)c1ccccc1)c1ccccc1 (stereo not drawn),-3.04
8,COc1cccc(-c2nc(CS(=O)(=O)CC(=O)NCc3ccc4c(c3)OCO4)c(C)o2)c1,-1.89
9,COc1cccc(C2C(C(=O)Nc3ccccc3)=C(C)N=c3s/c(=C\c4ccncc4)c(=O)n32)c1 (stereo not drawn),-4.59
10,CCCCN(C)CCCNC(=O)C1CCCN(S(=O)(=O)N2CCOCC2)C1 (stereo not drawn),-5.93
11,O=C(C1CCN(S(=O)(=O)c2ccc(Cl)cc2)CC1)N1CCOCC1,-1.22
12,COC(=O)c1c(C)nn(-c2ccccc2)c1NC(=O)C(C)Oc1ccc(Cl)cc1 (stereo not drawn),-3.41
13,COc1ccccc1C(=O)N1CCN(S(C)(=O)=O)CC1,-1.6
14,Cc1onc(-c2ccccc2Cl)c1C(=O)n1nnc2ccccc21,0.518
15,CCC(Sc1nc(C)cc(C)n1)C(=O)NC(C)c1ccccc1 (stereo not drawn),-5.51
16,COc1ccc(OC)c(C2c3[nH]c4ccccc4c3CCN2C(C)=O)c1 (stereo not drawn),-0.446
17,COc1ccc(C2(C(=O)N3CCCCC3)CCOCC2)cc1,-7.33
18,CSc1ccc(CN2CCN(Cc3ccccc3C)CC2)cc1,3.05
19,CC(CCc1ccccc1)NC(=O)COCc1cc(-c2ccc(F)cc2)on1 (stereo not drawn),-6.73
20,Cc1cccc2c(O)c(NC(=O)N3CC(C)CC(C)C3)cnc12 (stereo not drawn),-2.84
21,COc1ccc(CCNC(=O)Cc2c(C)c3c(OC)cc(OC)cc3oc2=O)cc1,-4.39
22,N#CCNC(=O)C(Cc1ccccc1C(F)(F)F)NC(=O)OCc1ccccc1 (stereo not drawn),-5.2
23,C=CCn1c(=N)c(C(=O)NCC2CCCO2)cc2c(=O)n3ccccc3nc21 (stereo not drawn),-1.47
24,CC1=C(C(=O)N2CCN(Cc3ccc4c(c3)OCO4)CC2)C2(CCC(C)CC2)OC1=O (stereo not drawn),3.19
